Measurements from ChEMBL document CHEMBL4888484, “Replenishing the malaria drug discovery pipeline: Screening and hit evaluation of the MMV Hit Generation Library 1 (HGL1) against asexual blood stage Plasmodium falciparum ,using a nano luciferase reporter read-out” (2022).
Among all 4,800 compounds or so, about 420 (8.8%) showed an effect of 50% or more. The list shows a part of the results.

What follows are molecules tested on Plasmodium falciparum (assay: Confirmatory screen in NF54 nanoGlo assay, in single point, at 2uM, 72h). Conditions: timepoint 72 hour.
Type: functional, Erythrocyte

SMILES	% Inhibition [%]
COc1ccc(-c2cnn3c(-c4ccccn4)ccnc23)cc1OC	-1
COC(=O)C(C)CN1CCCC(n2ccc(C(F)(F)F)n2)C1 (centres undefined)	-5
O=C(Nc1ccc2c(c1)c1cc(Br)ccc1n2Cc1ccccc1)c1ccccc1	4
CC1CCC(C)(NC(=O)Nc2ccn(C(C)C)n2)CC1 (centres undefined)	-11
Cc1c(-c2nn(-c3ccccc3)c(-c3cnn(C)c3C)c2Cl)cnn1C	-4
O=C(Cc1c[nH]c2ccccc12)N1CCc2ccccc2C1	-8
COCc1nncn1C1CN(C(=O)CCc2ccccc2OC)C1	-13
Cc1cc(C(=O)Nc2ccc(Br)c(C)n2)no1	-12
Cc1nn(CC2(O)CCCCC2)c(=O)c(C#N)c1C	-3
Cc1cc(C)n2c(-c3ccccc3C)nnc2n1	1
Cc1[nH]ncc1CCCNCc1cccc(O)c1	0
COCCOC(=O)c1cc(C(F)(F)F)cc(C(=O)OCCOC)n1	-2
CCCc1cnc(NC(=O)c2cnn(C)c2C)s1	-8
O=C1NC(=O)[C@]2(CCOc3ccc(F)cc32)N1	-3
CC(C)CCn1c(=O)c2sccc2n(CC(=O)N(C)c2ccccc2)c1=O	5
CC(C)=CCN1CC[C@]2(CCCO2)CCC1=O	2
COC(=O)[C@](Nc1ccc(Oc2ccccc2)cc1)(c1cc(C)c(O)c(C)c1)C(F)(F)F	4
Cc1ccccc1[C@H]1CCN(c2ccc(NC(=O)c3ccc(F)cc3)c(C(=O)O)c2)C1	-11
COc1ccc(N2CCN(C(=O)c3ccccc3Cl)[C@@H](C)C2=O)cc1OC	-11
O=S(=O)(c1ccc2c(c1)OCCO2)N1CCO[C@H](c2ccc(F)cc2)C1	-3
CN(C)c1ccc2c(c1)CN(C(=O)c1ccccc1S(C)(=O)=O)CC2	-14
Cc1cnn(CC(=O)N2CCC[C@@H]2CCc2ncc(C)n2CC2CC2)c1	-7
CCOc1cc(C(=O)Nc2ccc3nc4c(c(Nc5ccc(OC)c(OC)c5)c3c2)CCCC4)cc(OCC)c1OCC	96
O=C(COc1ccccc1O)NC1CC1c1cccc(Cl)c1 (centres undefined)	5
COc1ccc(C(=O)N2c3ncnn3C(c3ccccc3)CC2c2ccc(C)cc2)cc1OC (centres undefined)	78
Cc1cc(C(=O)N2CCN(C(=O)C(C)C)[C@@H]3CS(=O)(=O)C[C@@H]32)nc(C)n1	-10
CC1(C)C(=O)NCCN1C(=O)c1cccc2ccccc12	5
OCC#Cc1ncc(C(F)(F)F)cc1Cl	-8
CC(C)c1cc(=O)n(Cc2ccccc2Cn2cnc(C(C)C)cc2=O)cn1	-3
